In ChEMBL document CHEMBL1130474, “Conformationally restricted arginine analogues as inhibitors of human nitric oxide synthase” (Bioorg Med Chem Lett, 1997):

Test system: N=C(N)NCCC[C@H](N)C(=O)O

Nitric oxide synthase, inducible (Homo sapiens) (sequence not shown)
Km: 2.2 µM
